According to PubChem BioAssay AID1347165 (National Center for Advancing Translational Sciences (NCATS), 2019):
Screen size: about 220,000 compounds; about 5,700 (2.6%) were called active. Inconclusive results, whose numbers are uncertain, are shown with a selection of clear calls. Calls follow the shape of the dose curve; as a rule, active = well fitted inhibition curve with a large enough effect; inconclusive = small, poorly fitted or top-dose-only effect; inactive = no such curve, though single readings can be large or run the other way. A potency beside an inconclusive call is a rough fit, not a confirmed value.

target: Lysine-specific demethylase 5B (Homo sapiens) (UniProt Q9UGL1); experiment: Primary screen for KDM5B Histone Demethylases FDH-coupled qHTS; details: FDH-coupled NADH fluorescence (FDH is formaldehyde dehydrogenase); activity change, negative = inhibition: at 57.7 µM (top of the series) unless noted; also: nearly all actives have a fitted effect of over 70% in size; as to activity change, negative = inhibition: 0% is about no effect
Sequence of UniProt Q9UGL1 (Q9UGL1 whole entry, looked up): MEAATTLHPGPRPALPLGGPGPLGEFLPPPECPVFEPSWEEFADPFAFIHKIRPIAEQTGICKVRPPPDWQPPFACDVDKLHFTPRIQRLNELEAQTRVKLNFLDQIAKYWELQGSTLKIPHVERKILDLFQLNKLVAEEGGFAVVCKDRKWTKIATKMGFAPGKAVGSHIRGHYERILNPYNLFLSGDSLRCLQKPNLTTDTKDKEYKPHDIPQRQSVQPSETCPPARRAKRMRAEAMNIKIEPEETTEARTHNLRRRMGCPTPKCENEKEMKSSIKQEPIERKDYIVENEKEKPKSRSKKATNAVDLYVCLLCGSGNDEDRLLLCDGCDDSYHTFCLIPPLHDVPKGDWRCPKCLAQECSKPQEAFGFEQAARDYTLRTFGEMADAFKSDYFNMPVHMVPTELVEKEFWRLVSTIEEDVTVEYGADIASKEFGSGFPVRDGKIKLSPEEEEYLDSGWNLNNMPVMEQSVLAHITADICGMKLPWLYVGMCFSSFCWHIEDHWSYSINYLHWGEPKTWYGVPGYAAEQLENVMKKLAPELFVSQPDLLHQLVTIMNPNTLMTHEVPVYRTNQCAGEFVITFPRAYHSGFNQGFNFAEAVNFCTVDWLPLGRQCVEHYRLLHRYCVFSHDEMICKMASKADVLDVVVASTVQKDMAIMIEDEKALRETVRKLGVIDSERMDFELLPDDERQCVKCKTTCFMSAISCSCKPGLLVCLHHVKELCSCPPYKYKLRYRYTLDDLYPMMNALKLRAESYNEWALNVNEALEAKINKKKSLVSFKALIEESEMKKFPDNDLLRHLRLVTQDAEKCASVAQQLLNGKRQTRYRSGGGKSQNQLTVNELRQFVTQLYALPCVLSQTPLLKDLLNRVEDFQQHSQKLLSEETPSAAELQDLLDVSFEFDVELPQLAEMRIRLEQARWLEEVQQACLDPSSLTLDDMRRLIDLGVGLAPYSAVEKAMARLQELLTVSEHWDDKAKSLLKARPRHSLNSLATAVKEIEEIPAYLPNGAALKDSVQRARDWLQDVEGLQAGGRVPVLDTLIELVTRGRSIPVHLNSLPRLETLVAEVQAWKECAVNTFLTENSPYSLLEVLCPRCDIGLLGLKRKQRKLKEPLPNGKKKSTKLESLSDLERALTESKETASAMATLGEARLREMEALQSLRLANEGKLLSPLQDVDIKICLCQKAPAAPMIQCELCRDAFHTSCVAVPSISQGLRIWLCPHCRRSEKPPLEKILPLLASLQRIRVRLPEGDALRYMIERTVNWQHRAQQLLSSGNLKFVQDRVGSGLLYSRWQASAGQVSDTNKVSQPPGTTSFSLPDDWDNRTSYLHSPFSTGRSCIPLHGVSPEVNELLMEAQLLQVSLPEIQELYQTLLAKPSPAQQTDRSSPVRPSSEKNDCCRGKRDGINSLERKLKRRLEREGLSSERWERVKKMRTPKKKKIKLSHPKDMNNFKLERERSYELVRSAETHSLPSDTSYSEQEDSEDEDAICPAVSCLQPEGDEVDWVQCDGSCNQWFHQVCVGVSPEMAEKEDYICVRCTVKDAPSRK
Summary of the method: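 Coupled FDH/NAD⁺ fluorescence readout. KDM5BΔAP 200 nM final; compound titration, 10 min RT preincubation; substrate mix 12.5 µM H3K4me3, 25 µM 2-OG, 50 µM Fe(II), 100 µM ascorbate, 0.25 mM NAD⁺, 0.25 U/mL FDH; ΔRFU over 30 min.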
Potency is read from the fitted curve at half-maximal effect; tags tell the direction and shape of the fitted curve.

Compound	activity change, negative = inhibition	Potency
O=[N+]([O-])c1ccc(C(=C(c2ccccc2)c2ccccc2)c2ccc([N+](=O)[O-])cc2)cc1	inactive: -25%	–
Cc1ccc2c(c1)c(C(=O)N1CCC3(CCNC(=O)CC3)CC1)nn2C	–	inconclusive: 28.2 µM [inhibitor, partial curve]
Cc1nn(Cc2ccc(F)cc2)c2sc(C(=O)N3CCN(CC(=O)N4CCCC4)CC3)cc12	inactive: 13.5%	–
COc1ccc(C(=O)NC(=S)NNC(=O)[C@H]2C[C@@H]2c2ccccc2)cc1OC	–	inconclusive: 25.1 µM [inhibitor, single point]
C(=C\c1nc2ccccc2s1)/c1cccc(Oc2ccccc2)c1	–	inconclusive: 2 µM [inhibitor, full curve, poor fit]
CC(=O)c1ccc(N2CCN(C(=O)C3CCN(S(=O)(=O)c4c(C)noc4/C=C/c4ccc(C)cc4)CC3)CC2)cc1	–	inconclusive: 14.1 µM [inhibitor, partial curve, poor fit]
c1ccc(-c2cnc(CSc3nnc(NC4CC4)s3)o2)cc1	inactive: -7.33%	–
O=C(CCc1ncc(-c2ccccc2F)o1)N1CCSCC1	inactive: 12.7%	–
O=C(Nc1cccc(C(F)(F)F)c1)N[C@H]1CO[C@H]2[C@@H]1OC[C@@H]2n1nnnc1-c1ccc2c(c1)OCO2	–	inconclusive: 28.2 µM [inhibitor, partial curve, poor fit]
O=C(NCc1ccccc1)C1(CCO)CCN(c2ncccn2)C1 (centres undefined)	–	active: 28.2 µM
O=C(N/N=C/c1ccccn1)c1c[nH]c2ccccc12	–	inconclusive: 39.8 µM [inhibitor, partial curve, poor fit]
Cc1oc2c(c1C(=O)NCCCN1CCCCC1)CN(Cc1ccccc1)CC2	–	inconclusive: 28.2 µM [inhibitor, single point]
COc1cc(-c2nnc(SCCOc3ccc(Cl)cc3)o2)cc(OC)c1OC	–	inconclusive: 35.5 µM [inhibitor, partial curve, poor fit]
COCC(C)NC(=O)COC(=O)c1nn(-c2ccccc2)cc1OC (centres undefined)	–	inconclusive: 20 µM [inhibitor, partial curve, poor fit]
Cc1cccc(NC(=O)N2CCC(c3noc(-c4ccncc4)n3)C2)c1 (centres undefined)	inactive: 13.6%	–
CN(CCn1ccnc1-c1ccc(CO)o1)S(C)(=O)=O	–	inconclusive: 17.8 µM [inhibitor, partial curve]
CCc1ccc(CNC(=O)CCCN2C(=O)CCn3nc(-c4cccn4C)cc32)cc1	–	inconclusive: 3.98 µM [inhibitor, partial curve, poor fit]

Compound	activity change, negative = inhibition	Potency
CC(C)CCN(Cc1ccco1)C(=O)c1cc2c(s1)-c1ccccc1OC2	–	inconclusive: 35.5 µM [inhibitor, partial curve, poor fit]
CCC(C)NC(=O)CCNC(=O)c1cc2ccc(OC)cc2nc1C (centres undefined)	–	inconclusive: 22.4 µM [inhibitor, single point]
O=C(Nc1nc(-c2ccccc2Cl)cs1)c1cccc(N2CCCC2=O)c1	–	inconclusive: 39.8 µM [inhibitor, single point]
COCCn1c(C(=O)NCc2ccncc2)nc2ccccc2c1=O	inactive: 11.4%	–
O=C(Oc1ccc(F)cc1)c1ccc(-c2nc3ccccc3s2)s1	–	inconclusive: 22.4 µM [inhibitor, partial curve, poor fit]
Cc1cc2c(cc1NC(=O)c1ccccc1C)n(C)c(=O)c(=O)n2C	–	inconclusive: 28.2 µM [inhibitor, single point]
Cc1c(CC(=O)NCC(C)C)c(=O)oc2cc3c(cc12)CCC(C)(C)O3	–	inconclusive: 2 µM [inhibitor, full curve, poor fit]
CCOC(=O)C1=C(O)C(=O)N(c2ccccc2)C1c1cccc([N+](=O)[O-])c1 (centres undefined)	–	inconclusive: 35.5 µM [inhibitor, partial curve, poor fit]
COC(=O)CNC(=O)C1CCCN(c2nc3ncccc3o2)C1 (centres undefined)	–	active: 28.2 µM
COc1ccc(Br)c(C(=O)Nc2cc3c(cc2N2CCCC2)n(C)c(=O)c(=O)n3C)c1	–	inconclusive: 12.6 µM [inhibitor, partial curve, poor fit]
Cc1ccc(-c2cc(C(=O)OCC(=O)c3ccccc3)c3cccc(Cl)c3n2)cc1	–	inconclusive: 15.8 µM [inhibitor, partial curve, poor fit]
CCC(=O)NC12CC3CC(CC(C3)C1)C2	inactive: 26.8%	–
COc1cc2c(cc1OC)C(CNC(=O)CC(C)C)N(C(=O)Nc1cccc(F)c1)CC2 (centres undefined)	inactive: 5.29%	–
CNC(=O)Nc1cccn2nc(-c3ccccc3)nc12	–	active: 25.1 µM
O=C(O)c1cc(-c2ccc[nH]2)nc2ccccc12	inactive: -20.5%	–
CS(=O)(=O)c1ccc(CN2CCN3C(=O)N(C4CCOCC4)C[C@H]3C2)cc1	–	inconclusive: 39.8 µM [inhibitor, single point]
O=C(CCC1CCCN(S(=O)(=O)c2ccccc2)C1)N1CCCCC1 (centres undefined)	–	inconclusive: 17.8 µM [inhibitor, single point]
